In the supplement of paper PMC4604168 (melanoma cell lines):
This is one part of the list. Many values rest on one well or one pass, so single values are uncertain.

Assays:
Assay in all cases: cell count relative to DMSO control; melanoma cells; higher = more viable cells
Settings in all cases: library dose: standard library concentration; 72 h
G361 = test system: G361
IPC-298 = test system: IPC-298
IST-MEL1 = test system: IST-MEL1
LB2518-MEL = test system: LB2518-MEL
LOXIMVI = test system: LOXIMVI
MEL-HO = test system: MEL-HO
MZ2-MEL = test system: MZ2-MEL
MeWo = test system: MeWo
RPMI7951 = test system: RPMI7951
RVH-421 = test system: RVH-421
SkMel28 = test system: SkMel28
SkMel2 = test system: SkMel2
SkMel30 = test system: SkMel30
SkMel5 = test system: SkMel5
UACC257 = test system: UACC257
UACC62 = test system: UACC62
WM115 = test system: WM115
WM1716 = test system: WM1716
WM3526 = test system: WM3526
WM1745 = test system: WM1745
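Also: cells treated in 1,536-well plates, then fixed and DAPI-stained, with nuclei counted from automated high-throughput microscope images.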

SMILES	cell count (G361)	cell count (IPC-298)	cell count (IST-MEL1)	cell count (LB2518-MEL)	cell count (LOXIMVI)	cell count (MEL-HO)	cell count (MZ2-MEL)	cell count (MeWo)	cell count (RPMI7951)	cell count (RVH-421)	cell count (SkMel28)	cell count (SkMel2)	cell count (SkMel30)	cell count (SkMel5)	cell count (UACC257)	cell count (UACC62)	cell count (WM115)	cell count (WM1716)	cell count (WM3526)	cell count (WM1745)
Cc1cc(Nc2cc(N3CCN(C)CC3)nc(/C=C/c3ccccc3)n2)n[nH]1 + O=C(Oc1ccc([N+](=O)[O-])cc1)N1CCC(C(O)(c2ccc3c(c2)OCO3)c2ccc3c(c2)OCO3)CC1 [JZL184] (first compound 0.2 µM, partner dose 5 µM)	83.3%	93.9%	82.2%	91.8%	80.4%	90.4%	114%	74.9%	60.2%	88.4%	69.6%	78.5%	120%	79.2%	92.7%	68.2%	72.7%	79.6%	65.2%	
N#CC[C@H](C1CCCC1)n1cc(-c2ncnc3[nH]ccc23)cn1 [ruxolitinib] + O=C(Oc1ccc([N+](=O)[O-])cc1)N1CCC(C(O)(c2ccc3c(c2)OCO3)c2ccc3c(c2)OCO3)CC1 [JZL184] (first compound 5 µM, partner dose 5 µM)	76.2%	90%	92.8%	134%	113%	85.4%	92.7%	91.2%	90.8%	86.8%	132%	98.8%	116%	54.3%	106%	77%	91%	82.8%	101%	
O=c1[nH]nc(Sc2ncc([N+](=O)[O-])s2)n1-c1ccc2c(c1)OCCO2 + C/C(O)=C(\C#N)C(=O)Nc1cc(Br)ccc1Br [LFM-A13] (first compound 1 µM, partner dose 10 µM)	113%	82.4%	99.8%	106%	75.1%	105%	92.5%	81.4%	78.4%	91.1%	91%	97%	101%	91.1%	110%	78.5%	81.3%	91.9%	112%	
Cn1sc(=O)n(Cc2ccccc2)c1=O + O=C(Oc1ccc([N+](=O)[O-])cc1)N1CCC(C(O)(c2ccc3c(c2)OCO3)c2ccc3c(c2)OCO3)CC1 [JZL184] (first compound 2 µM, partner dose 5 µM)	88%	93.3%	101%	136%	99.3%	106%	91.1%	95.1%	46.6%	99.3%	82.5%	97.5%	106%	96.5%	95.1%	79.5%	79.6%	82%	101%	
C/C(O)=C(\C#N)C(=O)Nc1cc(Br)ccc1Br + Cc1cc([N+](=O)[O-])ccc1NS(=O)(=O)c1cc(Cl)ccc1Cl [FH535] (first compound 10 µM, partner dose 5 µM)	32.8%	39.9%	57.4%	73.7%	53.4%	44%	55.1%	64.8%	81.1%	54.3%	54.7%	70.6%	78.4%	42.5%	65.1%	71%	69.4%	67.3%	64.8%	71.3%
CC1(C)CCC(c2ccc(Cl)cc2)=C(CN2CCN(c3ccc(C(=O)NS(=O)(=O)c4ccc(N[C@H](CCN5CCOCC5)CSc5ccccc5)c(S(=O)(=O)C(F)(F)F)c4)cc3)CC2)C1 + O=C(Oc1ccc([N+](=O)[O-])cc1)N1CCC(C(O)(c2ccc3c(c2)OCO3)c2ccc3c(c2)OCO3)CC1 [JZL184] (first compound 2 µM, partner dose 5 µM)	104%	92.2%	82.7%	112%	49.5%	74.4%	90.8%	102%	41.9%	74.8%	73.4%	91.5%	85.8%	110%	40.2%	78%	79.2%	55.3%	107%	
O=C(Nc1cc(C(F)(F)F)cc(C(F)(F)F)c1)c1cc(Cl)ccc1O + C/C(O)=C(\C#N)C(=O)Nc1cc(Br)ccc1Br [LFM-A13] (first compound 0.08 µM, partner dose 10 µM)	97.3%	105%	84.6%	112%	93.6%	88.1%	100%	69.6%	68%	78.1%	103%	89.5%	102%	82.6%	85.6%	110%	92%	96.1%	99.7%	
CC[C@]1(O)C[C@H]2CN(CCc3c([nH]c4ccccc34)[C@@](C(=O)OC)(c3cc4c(cc3OC)N(C=O)[C@H]3[C@@](O)(C(=O)OC)[C@H](OC(C)=O)[C@]5(CC)C=CCN6CC[C@]43[C@@H]65)C2)C1 [vincristine] + C/C(O)=C(\C#N)C(=O)Nc1cc(Br)ccc1Br [LFM-A13] (first compound 0.0005 µM, partner dose 10 µM)	52%	69.5%	58.6%	62%	49.3%	79.1%	40.2%	18%	18.3%	51.5%	24.7%	14.2%	51.5%	37.1%	49.3%	51%	20.6%	46.8%	68.5%	
CCN(CC)CCNC(=O)c1c(C)[nH]c(/C=C2\C(=O)Nc3ccc(F)cc32)c1C [sunitinib] + Cc1cc(SCc2sc(-c3ccc(C(F)(F)F)c(F)c3)nc2C)ccc1OCC(=O)O [GW0742] (first compound 2 µM, partner dose 10 µM)	86.7%	73.7%	84.9%	77.6%	111%	82.9%	118%	60.8%	83.2%	84.1%	72.3%	77.1%	68.6%	51.5%	82.9%	78%	81.6%	99.2%	73.5%	
